# Data from US12104176B2, “Efficient cell culture system for hepatitis C virus genotype 6A” (priority 2018, dated 2024).
# System: HK2 full-length virus
structure (smiles),measurement,setting,value
CC(C)OC(=O)[C@H](C)N[P@](=O)(OC[C@H]1O[C@@H](n2ccc(=O)[nH]c2=O)[C@](C)(F)[C@@H]1O)Oc1ccccc1 [Sofosbuvir],outcome of long-term treatment,"HK2, sofosbuvir 1140 nM",failed to suppress the established infection
same,day after treatment initiation from which culture was HCV antigens negative,"HK2, sofosbuvir 2280 nM, FIG. 9B",7 days
